Assay [1] concerns the target RPW8.1-HA (Arabidopsis (accession Ms-0)) (UniProt Q9C5Z7). The assay is described as follows: co-IP; transient coexpression in N. benthamiana by agroinfiltration, leaves collected at 36 hpi; IP buffer with 25 mM Tris-HCl pH 7.5, 100 mM NaCl, 1 mM EDTA, 10 mM DTT, 10% glycerol, 0.5% triton; alpha-Flag agarose 2 h at 4 C; immunoblot with alpha-HA or alpha-Flag. (In general: A western blot detects proteins with antibodies after separation by electrophoresis.)

In assay [2] the target is ACO4-Flag (Arabidopsis) (UniProt Q06588). The assay is described as above.
The target in assay [3] is T1, ACO4_(38-175)-Flag (Arabidopsis) (UniProt Q06588).
T1 sequence: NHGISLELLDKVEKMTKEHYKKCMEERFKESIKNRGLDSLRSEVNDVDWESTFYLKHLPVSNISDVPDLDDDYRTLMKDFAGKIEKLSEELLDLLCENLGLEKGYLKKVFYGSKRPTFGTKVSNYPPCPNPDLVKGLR
Described as above.

For assay [4], the target named is T2, RPW8.1 fused to the Gal4 DNA-binding domain (BD) of pGBKT7 (Arabidopsis (accession Ms-0)) (UniProt Q9C5Z7).
T2 sequence: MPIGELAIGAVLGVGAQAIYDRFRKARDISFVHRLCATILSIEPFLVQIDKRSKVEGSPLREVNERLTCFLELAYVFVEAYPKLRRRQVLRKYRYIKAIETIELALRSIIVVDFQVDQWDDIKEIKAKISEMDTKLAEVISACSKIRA
The assay is described as follows: two-hybrid; RPW8.1 or RPW8.2 on the Gal4 BD (pGBKT7) as bait, ACO proteins and fragments on the Gal4 AD (pGADT7) as prey; growth on SD/-Ade/-His/-Leu/-Trp with X-alpha-gal (40 ug/ml) and Aureobasidin A (200 ng/ml), photographed after 3 d.

Assay [5] concerns the target T3, RPW8.2 fused to the Gal4 DNA-binding domain (BD) of pGBKT7 (Arabidopsis (accession Ms-0)) (UniProt Q9C5Z6).
T3 sequence: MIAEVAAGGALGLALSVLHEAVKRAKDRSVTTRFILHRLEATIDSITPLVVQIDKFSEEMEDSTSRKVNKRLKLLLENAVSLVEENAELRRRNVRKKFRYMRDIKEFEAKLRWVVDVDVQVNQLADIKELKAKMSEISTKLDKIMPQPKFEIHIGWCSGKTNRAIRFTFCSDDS
The description is as above.

For assay [6], the target named is T4, YN-RPW8.1 (Arabidopsis (accession Ms-0)) (UniProt Q9C5Z7).
T4 sequence: T2 sequence
The assay is described as follows: split reporter; BiFC: YN- and YC-tagged proteins coexpressed in N. benthamiana leaves; YFP fluorescence by confocal microscopy 2 d after infiltration.

The target in assay [7] is T5, RPW8.1-YC (Arabidopsis (accession Ms-0)) (UniProt Q9C5Z7).
T5 sequence: T2 sequence
The description is as above.

Results are given in words; binding and its absence hold for the method and conditions named. For some of these results: Binding seen in cells or lysates may run through a third protein. Some binding calls cover weakened binding; strength is not graded here. For some of these results: Sequences can lack the tags named with a protein.

From paper PMC7754472 come the findings set out here.

B1: RPW8.1-HA (protein, UniProt Q9C5Z7 1-148)
chain: T2 sequence
In the case of B1, the binding result in assay [1], in assay [2] and in assay [3] was “binds” in each case.

B2: A4T2 (ACO4 aa 255-323), Y2H prey (domain or fragment, UniProt Q06588 255-323)
chain: GSDSVIFPAPELIGKEAEKEKKENYPRFVFEDYMKLYSAVKFQAKEPRFEAMKAMETTVANNVGPLATA
On to B2, for which the binding result in assay [4] is “no binding”.

B3: ACO1 in the GAL4 activation domain (AD) vector (enzyme, UniProt Q9ZUN4 1-310)
chain: MVLIKEREMEIPVIDFAELDGEKRSKTMSLLDHACDKWGFFMVDNHGIDKELMEKVKKMINSHYEEHLKEKFYQSEMVKALSEGKTSDADWESSFFISHKPTSNICQIPNISEELSKTMDEYVCQLHKFAERLSKLMCENLGLDQEDIMNAFSGPKGPAFGTKVAKYPECPRPELMRGLREHTDAGGIILLLQDDQVPGLEFFKDGKWVPIPPSKNNTIFVNTGDQLEILSNGRYKSVVHRVMTVKHGSRLSIATFYNPAGDAIISPAPKLLYPSGYRFQDYLKLYSTTKFGDKGPRLETMKKMGNADSA
On to B3, for which the binding entry in assay [4] was “no binding”.

B4: A4T1 (ACO4 aa 153-254), Y2H prey (domain or fragment, UniProt Q06588 153-254)
chain: PTFGTKVSNYPPCPNPDLVKGLRAHTDAGGIILLFQDDKVSGLQLLKDGEWVDVPPVKHSIVVNLGDQLEVITNGKYKSVEHRVLSQTDGEGRMSIASFYNP
Consider B4, for which, in assay [4], the binding entry is given as “no binding”.

B5: ACO4_(38-175) fused to the Gal4 activation domain (AD) of pGADT7 (domain or fragment, UniProt Q06588 38-175)
chain: T1 sequence
As for B5, the binding entry is recorded as “binds” in assay [4] and “no binding” in assay [5].

B6: ACO4_(38-175)-YC (domain or fragment, UniProt Q06588 38-175)
chain: T1 sequence
For B6, the binding entry in assay [6] is given as “binds”.

B7: YN-ACO4_(38-175) (domain or fragment, UniProt Q06588 38-175)
chain: T1 sequence
As for B7, the binding result in assay [7] is given as “binds”.
